Test results from the antibiotic and cytotoxicity screens of Wong et al. (2023).
The list shows a part of the results.

System: S. aureus RN4220
Test: growth inhibition call (relative growth <= 0.2)
Conditions: 50 µM

Growth inhibition call, inactive:
C[C@@H]1CN([C@@H](C)CO)C(=O)c2cc(NC(=O)Cn3cnnn3)ccc2O[C@H]1CN(C)S(=O)(=O)c1cn(C)cn1
Cc1noc(C)c1NC(=O)Nc1ccc2c(c1)C(=O)N([C@@H](C)CO)C[C@H](C)[C@@H](CN(C)C(=O)Nc1ccc(C(F)(F)F)cc1)O2
C[C@H](CO)N1C[C@H](C)[C@H](CN(C)C(=O)Nc2cccc3ccccc23)Oc2ccc(NS(=O)(=O)c3ccc(F)cc3)cc2C1=O
C[C@@H]1CCCCO[C@@H](CN(C)C(=O)Cc2ccccc2)[C@H](C)CN([C@H](C)CO)C(=O)c2cc(NS(=O)(=O)c3ccc(F)cc3)ccc2O1
C[C@@H]1CN([C@@H](C)CO)C(=O)c2cccc(NC(=O)C3CCOCC3)c2O[C@@H]1CN(C)Cc1ccc(-c2ccccc2)cc1
N[C@@H]1CCCN(c2c(/C=C3\SC(=O)NC3=O)cccc2-c2ccccc2)C1
Cc1noc(C)c1NC(=O)N(C)C[C@H]1Oc2c(NC(=O)c3cnccn3)cccc2C(=O)N([C@H](C)CO)C[C@@H]1C
C[C@@H]1CN([C@H](C)CO)C(=O)c2cc(NC(=O)Cc3ccccc3)ccc2O[C@@H](C)CCCCO[C@H]1CN(C)C(=O)NC1CCCCC1
C[C@H]1CCCCO[C@H](CN(C)C(=O)NC2CCCCC2)[C@@H](C)CN([C@@H](C)CO)C(=O)c2cc(NC(=O)c3ccccc3)ccc2O1
O=C(C[C@H]1C[C@@H]2c3cc(NS(=O)(=O)c4ccc(F)cc4)ccc3O[C@@H]2[C@@H](CO)O1)NC1CCCC1
C[C@H](NC(=O)C[C@@H]1CC[C@@H](NC(=O)CN2CCOCC2)[C@H](CO)O1)c1ccccc1
O=c1[nH]c2ccsc2c(=O)n1CCO
Cc1ccc(S(=O)(=O)Nc2ccc3c(c2)CC(=O)N([C@H](C)CO)C[C@H](C)[C@@H](CN(C)Cc2ccncc2)O3)cc1
C[C@H]1CN([C@@H](C)CO)C(=O)CCCn2cc(nn2)CO[C@@H]1CN(C)S(=O)(=O)c1ccccc1C#N
NC(=O)CSc1nnc(Cc2cc(=O)[nH]c(=O)[nH]2)n1-c1ccccc1
COC1OC2OC3(C)CCC4C(C)CCC(C1C)C24OO3 (stereo not given)
C[C@H](CO)N1C[C@H](C)[C@H](CN(C)S(=O)(=O)c2cn(C)cn2)Oc2ccc(N(C)C)cc2CC1=O
COC1=CC(=O)CC(C)C12Oc1c(Cl)c(OC)cc(OC)c1C2=O (stereo not given)
Cn1cc(N2C[C@]3(COCCN(C(=O)C4(C#N)CC4)C3)OCC2=O)cn1
Cc1noc(C)c1S(=O)(=O)Nc1ccc2c(c1)C(=O)N([C@@H](C)CO)C[C@H](C)[C@H](CN(C)S(=O)(=O)c1ccc(Cl)cc1)O2
Cc1ccc(S(=O)(=O)Nc2ccc3c(c2)C(=O)N([C@@H](C)CO)C[C@@H](C)[C@@H](CN(C)C(=O)Nc2cccc4ccccc24)O3)cc1
O=C(O)c1cccnc1C(=O)O
Cc1cccc[n+]1C
C[C@H]1[C@H](NC(=O)/C(=N\OC(C)(C)C(=O)O)c2csc(N)n2)C(=O)N1S(=O)(=O)O
Cc1noc(C)c1S(=O)(=O)Nc1ccc2c(c1)CC(=O)N([C@@H](C)CO)C[C@@H](C)[C@H](CN(C)Cc1ccc(C(=O)O)cc1)O2
C[C@@H]1CN([C@H](C)CO)C(=O)c2cccc(NS(=O)(=O)c3ccc(Cl)cc3)c2O[C@@H]1CN(C)S(C)(=O)=O
COc1cccc(NC(=O)C[C@H]2CC[C@H]3[C@H](COc4ccc(NC(=O)C5CCOCC5)cc4C(=O)N3C)O2)c1
C[C@@H]1CN([C@H](C)CO)C(=O)c2cc(NC(=O)NC3CCCCC3)ccc2O[C@@H]1CN(C)Cc1ccc(Oc2ccccc2)cc1
Cc1noc(C)c1S(=O)(=O)Nc1ccc2c(c1)C(=O)N([C@@H](C)CO)C[C@@H](C)[C@@H](CN(C)S(C)(=O)=O)O2
C=C1C(=O)C(O)[C@@H]2O[C@@H]2C1=O (stereo not given in full)
C[C@@H]1CN([C@@H](C)CO)C(=O)c2cc(NS(=O)(=O)c3ccc(F)cc3)ccc2O[C@@H](C)CCCCO[C@H]1CN(C)C(=O)Nc1ccccc1
C[C@H]1CN([C@@H](C)CO)C(=O)Cc2cc(NS(=O)(=O)c3ccccc3)ccc2O[C@H]1CN(C)S(=O)(=O)c1cccs1
COCCNC(=O)C[C@H]1C[C@@H]2c3cc(NS(C)(=O)=O)ccc3O[C@@H]2[C@@H](CO)O1
Cc1ccc(OC(=O)N(C)C[C@@H]2OCc3ccccc3-c3ccccc3C(=O)N([C@@H](C)CO)C[C@@H]2C)cc1
CN(C)CC(=O)N[C@@H]1C=C[C@H](CC(=O)NCCN2CCCCC2)O[C@H]1CO
C[C@@H]1CN([C@H](C)CO)C(=O)c2cc(NC(=O)CCN3CCOCC3)ccc2O[C@@H]1CN(C)Cc1ccc2c(c1)OCO2
CO[C@H]1O[C@H](CO)[C@@H](OC(=O)Nc2cccc(F)c2)[C@H](OC(=O)Nc2ccccc2-c2ccccc2)[C@@H]1OC(=O)Nc1ccccc1-c1ccccc1
CC(C)CCCC(C)N (stereo not given)
C[C@@H]1CN([C@H](C)CO)C(=O)c2cc(NS(=O)(=O)c3ccccc3)ccc2O[C@@H]1CN(C)Cc1ccncc1
NCCCS(=O)(=O)O
